# Laboratory results taken from PubChem BioAssay AID686978 (National Center for Advancing Translational Sciences (NCATS), 2013).
# Screen size: about 420,000 compounds; about 64,000 (15%) were called active. Inconclusive means that the source gave no clear call. Such entries were picked first, then a sample of the others. Calls come from the whole dose curve; as a rule, active = well fitted inhibition curve with a large enough effect; inconclusive = small, poorly fitted or top-dose-only effect; inactive = flat fitted curve, though single readings scatter. No potency is given beside an inconclusive call; the fits are too rough.
# Assay: qHTS for Inhibitors of human tyrosyl-DNA phosphodiesterase 1 (TDP1): qHTS in cells in absence of CPT; note: nearly all actives have a fitted effect of over 55% in size
# Details: DT40 Tdp1-/- hTDP1 cells, no CPT, ATP luminescence, 48 h; series mostly up to 46.2 µM
# Method in brief: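 DT40 Tdp1-/-;hTDP1 cells, no CPT (DMSO vehicle only), 400 cells/well; compounds pin-transferred; ≥48 hr, 37 °C; CellTiter-Glo 30 min RT dark, luminescence read.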
# Potency is the fitted concentration of half-maximal effect; tags give direction and shape of the fitted curve.
row,Structure (SMILES),Potency
1,CC(=O)Nc1cccc(OCCCOc2cccc([N+](=O)[O-])c2)c1,"inconclusive [inhibitor, partial curve]"
2,COc1ccc(C(=O)COC(=O)CCCN=C2NS(=O)(=O)c3ccccc32)c(OC)c1,inactive
3,C[C@]12CC[C@H](O)C[C@@H]1CC[C@@H]1[C@@H]2CC[C@@]2(C)[C@H]1CCC(=O)[C@]21CCCO1,"inconclusive [inhibitor, single point]"
4,Cc1nn(C)c(C)c1NC(=O)CCCSc1nc(-c2ccco2)cc(C(F)(F)F)n1,"inconclusive [inhibitor, single point]"
5,COc1ccc(/C=C/C(=O)C2C(=O)C=C(C)OC2=O)cc1O (configuration not stated),"inconclusive [inhibitor, single point]"
6,CCCCOCCCNC(=O)C[C@@H]1C[C@@]2(C(=O)OCC)CCCC=C2N(Cc2ccco2)C1=O,"inconclusive [inhibitor, single point]"
7,O=C(c1ccc(NC(=S)Nc2ccc(Cl)c(Cl)c2)cc1)N1CCCC1,"inconclusive [inhibitor, single point]"
8,Cc1ccc2ccc(C(Nc3ccccn3)c3ccccc3)c(O)c2n1 (configuration not stated),active: 18.4 µM
9,COc1ccc(N(CC(=O)NCc2ccncc2)S(=O)(=O)c2ccccc2[N+](=O)[O-])c(OC)c1,inactive
10,Cc1cc(N2CCOCC2)nc2ccc(NC(=S)N3CCCCC3C)cc12 (configuration not stated),"inconclusive [inhibitor, single point]"
11,N#C/C(=C\c1ccc(N2CCOCC2)o1)c1ccccc1,"inconclusive [inhibitor, single point]"
12,CCOC(=O)CN1C(=O)C(Sc2n[nH]c(-c3ccc(C)cc3)n2)CCc2ccccc21 (configuration not stated),"inconclusive [inhibitor, single point]"
13,CCOc1ccc(N(CC(=O)NC2CCCCC2)C(=O)CSc2nnc(COc3ccccc3)o2)cc1,"inconclusive [inhibitor, single point]"
14,CC(C)CCNC(=O)C(C)N(C(=O)Cn1nnc(-c2ccc(F)cc2)n1)C1CCCC1 (configuration not stated),"inconclusive [inhibitor, single point]"
15,O=C(Nc1ccc(F)cc1F)C1CCCN(c2ncnc3c2nc2n3CCCCC2)C1 (configuration not stated),active: 14.6 µM
16,O=C(COC(=O)CNC(=O)c1ccccc1Cl)NC1CCCC1,inactive
17,O=c1nc(NCc2ccco2)sc2ncccc12,inactive
18,COc1ccc(C(=O)CN2C(=O)N(c3cc(C)cc(C)c3)S(=O)(=O)c3ccccc32)cc1,"inconclusive [inhibitor, single point]"
19,CCN(CC)c1ncnc2c1sc1nc(C)cc(C)c12,"inconclusive [inhibitor, partial curve]"
20,CCOC(=O)CCCCC(=O)c1[nH]c(=O)[nH]c1C[n+]1ccc(C)cc1,inactive
21,Clc1ccc(CCNc2ncnc3c2c(-c2ccccc2)cn3-c2ccccc2)cc1,"inconclusive [inhibitor, single point]"
22,CCN(c1ccccc1)S(=O)(=O)c1ccc(C(=O)Nc2ncccc2O)cc1,"inconclusive [inhibitor, single point]"
23,NCCc1nnc(SCc2ccc(Cl)cc2)o1,inactive

row,Structure (SMILES),Potency
1,COc1ccc(N2C[C@H](C)[C@@H](CC(=O)Nc3ccc(Br)cc3)C2=O)cc1,"inconclusive [inhibitor, single point]"
2,CCCCN(C)CCNC(=O)c1cn(C)c(=O)c2c1c1ccccc1n2C,inactive
3,COc1cccc(NC(=O)CN(C)C(=O)c2ccc3[nH]c4c(c3c2)CC(C)CC4)c1 (configuration not stated),"inconclusive [inhibitor, single point]"
4,CCc1ccccc1NC(=O)C1CCCN(c2ncnc3onc(-c4ccc(F)cc4)c23)C1 (configuration not stated),"inconclusive [inhibitor, single point]"
5,N/C(=N/OCc1cccc([N+](=O)[O-])c1)c1nonc1N,"inconclusive [inhibitor, single point]"
6,CCOC(=O)c1oc2cc(O)ccc2c(=O)c1-c1ccc(OC)cc1,"inconclusive [inhibitor, partial curve]"
7,C=CCCC(=O)N1C[C@H]2CON(C)[C@H]2C[C@H]1c1cccc(Oc2ccccc2)c1,"inconclusive [inhibitor, single point]"
8,COC(=O)C1=CN(c2ccc(F)c(F)c2)C=C(C(=O)OC)C1c1ccc([N+](=O)[O-])cc1,"inconclusive [inhibitor, single point]"
9,FC(F)(F)c1ccc(CN2C[C@@H]3C(c4ccc(Cl)nc4)C4(c5ccccc5)CC3(C4)[C@H]2c2ccccc2)cc1 (some centres not stated),"inconclusive [inhibitor, partial curve]"
10,O=C(CC1C(=O)NCCN1Cc1cccc(F)c1)NC1CCCCC1 (configuration not stated),inactive
11,CCCCC(CC)Cn1c(O)c(/C=C2\C=NN=C2c2ccccc2)sc1=S (configuration not stated),"inconclusive [inhibitor, single point]"
12,Cc1ccc(-n2c(C)cc(C(=O)COC(=O)c3ccc[nH]c3=O)c2C)cc1C,"inconclusive [inhibitor, partial curve]"
13,COc1cc(OC)cc(-n2nc(C(=O)N3CC(C)CC(C)C3)c3ccccc3c2=O)c1 (configuration not stated),"inconclusive [inhibitor, partial curve]"
14,CC(C)c1ccc(C(=O)N2CCOCC2c2cc(C(=O)Nc3ccccc3)no2)cc1 (configuration not stated),"inconclusive [inhibitor, single point]"
15,CCCCC(=O)Nc1cccc(OCc2cc(=O)n3ccccc3n2)c1,inactive
16,COc1cc(C(c2c(O)nc(SC)[nH]c2=O)c2c(O)nc(SC)[nH]c2=O)cc(OC)c1OC,"inconclusive [inhibitor, single point]"
17,COc1ccc(S(=O)(=O)NCCCn2ccnc2)cc1Cl,inactive
18,COc1cc(C(=O)NCC(c2cccnc2)N2CCN(C)CC2)cc(OC)c1OC (configuration not stated),inactive
19,O=c1[nH]c(C2CCCN(S(=O)(=O)c3ccc(F)cc3)C2)nc2c1nnn2Cc1ccccc1 (configuration not stated),"inconclusive [inhibitor, single point]"
20,COc1ccccc1CNC(=O)Cn1ncc2c(=O)oc3ccc(C)cc3c21,inactive
21,Cc1ccc(Nc2c(-c3ccc(C)cc3)nc3cnccn23)cc1,"inconclusive [inhibitor, single point]"
22,CCOC(=O)c1ccc(Nc2c(-c3ccc(O)cc3)nc3nc[nH]n23)cc1,"inconclusive [inhibitor, single point]"
23,Cc1ccccc1CS(=O)(=O)Cc1ccc(C(=O)NCCc2ccccc2)o1,"inconclusive [inhibitor, single point]"

row,Structure (SMILES),Potency
1,COC(=O)c1ccc(N2NC(=O)/C(=C/c3cc(OC)c(O)c(OC)c3)C2=O)cc1,"inconclusive [inhibitor, full curve, poor fit]"
2,CC(=O)Nc1ccccc1OCC(O)CS(=O)(=O)c1ccc(C(F)(F)F)cn1 (configuration not stated),"inconclusive [inhibitor, partial curve, poor fit]"
3,CC(C)(C)c1ccc(NC(=O)COC(=O)C2(C)CC2(Cl)Cl)cc1 (configuration not stated),active: 23.1 µM
4,COc1cc(C)cc(CN2CCC(Cc3ccccc3)CC2)c1O,"inconclusive [inhibitor, single point]"
5,CCOC(=O)C1=CCN(S(=O)(=O)c2ccccc2C)C1c1ccc(Br)cc1 (configuration not stated),"inconclusive [inhibitor, single point]"
6,COc1cc(C(=O)Nc2cc(C)ccc2OCc2cc(=O)n3cc(C)sc3n2)cc(OC)c1OC,inactive
7,S=C(NCCCc1ccccc1)NCc1ccccc1,"inconclusive [inhibitor, single point]"
8,O=C(Cc1cccs1)N/N=C/C=C\c1ccco1,"inconclusive [inhibitor, single point]"
9,Nc1ccc(/C=C2\C=Cc3ccccc32)cc1,"inconclusive [inhibitor, single point]"
10,COc1cccc2cc(-c3nc(-c4ccccc4)c(C)s3)c(=O)oc12,"inconclusive [inhibitor, partial curve]"
11,COc1ccc(/C=C2\NC(=S)N(CC3CCCO3)C2=O)c(OC)c1C (configuration not stated),"inconclusive [inhibitor, partial curve]"
12,N#C/C(=C\c1ccc(-c2cccc([N+](=O)[O-])c2)o1)C(=O)NCCN1CCOCC1,"inconclusive [inhibitor, partial curve]"
13,CCCCS(=O)(=O)Nc1ccc2cn[nH]c2c1,inactive
14,CC(C)c1ccc(CNCCSc2nnnn2C)cc1,inactive
15,Cc1coc(C)c1C(=O)CC1(O)C(=O)N(CCc2ccccc2)c2ccccc21 (configuration not stated),"inconclusive [inhibitor, single point]"
16,CCOc1ccc(Cl)cc1CSc1n[nH]c(CC)n1,"inconclusive [inhibitor, single point]"
17,COc1ccc(C(=O)NCC(c2ccco2)N2CCc3ccccc32)cc1 (configuration not stated),active: 2.59 µM
18,Cn1c(=O)c2c(SCC(=O)NCc3ccco3)nc(-c3ccccc3Cl)nc2n(C)c1=O,active: 23.1 µM
19,CCNC(=S)NNC(=O)Cc1ccccc1,"inconclusive [inhibitor, single point]"
20,Cc1ccc(NC(=O)CSc2nc3c(c(=O)[nH]2)CN(Cc2ccc4c(c2)OCO4)CC3)cc1C,inactive
21,CCOc1ccc(NC(=O)C(C)Sc2nnc3cc(C)c4ccccc4n23)cc1 (configuration not stated),"inconclusive [inhibitor, single point]"
